Some of the results follow. At the low end of the ranking the order means little.

The assay addresses SIX1 homeodomain (reference allele) (UniProt Q15475). Put plainly: universal protein binding microarray. As to conditions: Universal all-10-mer PBM (8x60K, AMADID 030236), 300 nM GST-tagged protein, Alexa Fluor 488 anti-GST; buffer, salt, pH and temperature not stated; high values mean tight binding; most listed sequences are background and not binding sites; double strand, one strand shown.
In the case of AGAGGACG, the binding signal was -0.0355 E-score.
ATTTAGCC: the binding signal came to 0.0398 E-score.
For GGAGAAAA, the binding signal was -0.274 E-score.
In the case of CTAACCCA it was -0.186 E-score; in that of CCTGGTTA, -0.226 E-score; in that of ATTCAAAT, -0.0286 E-score.
Take AAAGTGGG: the binding signal was -0.131 E-score.
To ATGATCGA belongs 0.173 E-score; to ACAATCGG, 0.0171 E-score; to CTCCGCTC, -0.0857 E-score.
To ATTACATC belongs 0.248 E-score.
In the case of GGGGCAAC it was -0.311 E-score.
With ACATACCC, the binding signal stood at 0.194 E-score.
In the case of GACCCTGA, the binding signal was -0.00933 E-score.
In the case of ATGGGCAC it was -0.0748 E-score; in that of AGTTATAT, 0.133 E-score; in that of GAGCACAC, -0.0523 E-score.
For the sequence CGGCGGGA, the binding signal was -0.101 E-score.
To CGGCCCAA belongs -0.064 E-score; to AACGGGGT, -0.0762 E-score.
As to TAGAAACA, the binding signal is -0.159 E-score.
As for CTCCGCGA, the binding signal was -0.114 E-score.
For the sequence TGTCGCAA, the binding signal is -0.134 E-score.
To ATGGATGA belongs 0.195 E-score; to ATAGTCTA, 0.162 E-score.
To GGGCCGAA belongs -0.324 E-score; to CGACAATA, -0.0135 E-score.
Consider CTCCGACA, for which the binding signal is -0.0555 E-score.
To GACAAACA belongs -0.28 E-score; to CCATAGAA, -0.0677 E-score; to CAAAAGCA, -0.169 E-score.
In the case of CACAACCG, the binding signal was -0.0804 E-score.
Take CGTAGAAC: the binding signal was -0.0371 E-score.
In the case of CGTTCAGA it was -0.231 E-score.
To ATCGGATG belongs 0.252 E-score; to ATCCCACC, 0.289 E-score; to ATACTGTC, 0.188 E-score.
In the case of CCGACCGA it was -0.0975 E-score.
Consider CTCGTCAA, for which the binding signal is -0.218 E-score.
To GGGACCCC belongs -0.129 E-score; to ACTTTCCT, -0.159 E-score; to CACGACTC, -0.0214 E-score.
For CGTGCACG, the binding signal is -0.00126 E-score.
To CTTTCCGC belongs -0.337 E-score.
For ACAATGAA, the binding signal is -0.109 E-score.
On to ACAATTCG, for which the binding signal is -0.0338 E-score.
In the case of ATGCCTCG it was -0.043 E-score; in that of ACGCGCCC, -0.00741 E-score.
To AGCGTGTG belongs -0.186 E-score; to AATAAACT, -0.112 E-score.
In the case of TCGGAACA, the binding signal is 0.0166 E-score.
On to AAAAAGCT, for which the binding signal is -0.201 E-score.
Turning to CAGATAGA, the binding signal stood at 0.112 E-score.
Turning to GCGACAGC, the binding signal was -0.326 E-score.
To CCGGGATA belongs 0.305 E-score; to AAACGGAG, -0.23 E-score.
On to ACGTAATG, for which the binding signal stood at 0.0035 E-score.
With AGGACGGC, the binding signal is -0.141 E-score.
As for GGGTCCAA, the binding signal turned out to be 0.0166 E-score.
Turning to CAATCAGA, the binding signal is -0.105 E-score.
GTAACGGA: the binding signal was -0.129 E-score.
With ATTCATAC, the binding signal amounted to 0.142 E-score.
In the case of ACCGCGAA it was 0.0424 E-score; in that of AGAGGTCC, -0.0824 E-score; in that of AAGTGGCG, -0.0716 E-score.
In the case of CTTGTTTC it was -0.038 E-score.
To AGACCGCG belongs -0.154 E-score; to ACTTACCC, 0.0447 E-score.
For the sequence AACGCCAT, the binding signal was -0.0164 E-score.
For the sequence GTCCAGAA, the binding signal was -0.274 E-score.
In the case of CCGTCCGC it was -0.266 E-score; in that of GCTAACCC, -0.0191 E-score; in that of ACCTACGG, -0.101 E-score.
To CCGGTAAG belongs -0.0913 E-score; to AATTAATT, -0.44 E-score; to CTATAGGA, 0.116 E-score.
Turning to AACCTAGT, the binding signal was determined as 0.125 E-score.
For the sequence CCTTCCGA, the binding signal was 0.0464 E-score.
Take ATTTTTAC: the binding signal is -0.193 E-score.
In the case of ACGACACG it was 0.156 E-score.
In the case of CAATAGGA it was 0.0183 E-score.
Consider CCATGCAG, for which the binding signal is -0.17 E-score.
Regarding CGGAAGGC, the binding signal is -0.2 E-score.
In the case of CACCCCTA, the binding signal came to 0.158 E-score.
As to TAATTAGA, the binding signal is -0.0593 E-score.
To GTACCCAC belongs 0.021 E-score; to AATGCGTG, -0.0748 E-score.
To CGTTAGAG belongs 0.0975 E-score.
To TAAGAGAA belongs -0.128 E-score.
In the case of CCAGCCAA, the binding signal was -0.168 E-score.
To CTCTCGTC belongs -0.158 E-score; to CGGTCACA, -0.0846 E-score.
In the case of ACCTTTCG it was -0.0648 E-score; in that of GGTGGGGA, 0.147 E-score.
